# Laboratory results from patent publication US5840740A, “Aminosterol compounds and a method of treating infection using the aminosterol compounds” (priority 1995, dated 1998).
# What was measured:
# [1] = test system: L1210 lymphoblastic leukemia; experiment: Mouse model of leukemia (survival); conditions: 1, 5, 10 mg/kg every 3 days i.p.
# Procedure: Because of its inhibitory activity on the growth of numerous cancer cells, compound 1436 was evaluated in a classical mouse model of leukemia (Baker et al., Cancer Res. 53, 1993, 3052-3057). C57B mice were inoculated with L1210 lymphoblastic leukemia cells at an inoculum that causes leukemia in 100% of animals. Mice received compound 1436 at 1, 5, 10 mg/kg every 3 days intraperitoneally.
# [2] = Hematological profile in L1210-inoculated mice; conditions: in words
smiles,measurement,setting,value
CC(C)[C@@H](CC[C@@H](C)[C@H]1CC[C@H]2[C@@H]3[C@H](O)C[C@H]4C[C@@H](NCCCNCCCCNCCCN)CC[C@]4(C)[C@H]3CC[C@]12C)OS(=O)(=O)O [Compound 1436],prolongation of life,[1],significant prolongation of life was achieved with the highest dose
same,hematological profile,[2],"near normal hematocrit, with evidence of a robust granulocyte count"
